Measurements from patent US20050142568A1 (published 2005).

Key:
Test in all cases: GST pull-down, 35S-Met protein vs GST fusion; - means no detectable binding (footnote a)
[1] = molecular target: T1, ^35S-Methionine labeled CRN-4 (C. elegans, UniProt Q10905 1-298, 35S-methionine labelled)
T1 sequence (looked up): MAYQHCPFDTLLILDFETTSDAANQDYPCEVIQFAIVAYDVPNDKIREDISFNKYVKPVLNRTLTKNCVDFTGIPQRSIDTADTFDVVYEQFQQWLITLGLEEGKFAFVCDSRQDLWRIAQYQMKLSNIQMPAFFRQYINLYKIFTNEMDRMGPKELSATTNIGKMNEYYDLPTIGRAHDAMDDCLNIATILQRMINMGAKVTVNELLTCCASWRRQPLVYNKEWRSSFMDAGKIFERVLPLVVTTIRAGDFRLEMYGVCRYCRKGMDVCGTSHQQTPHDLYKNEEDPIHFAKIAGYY
Procedure: (§1) GST fusion protein pull-down assays were performed as described in J. Parrish, H. Metters, L. Chen, D. Xue, Proc. Natl. Acad. Sci. U.S.A. 97, 11916 (2000). Purified GST or GST-fusion proteins (5 μg each) immobilized on glutathione sepharose beads were incubated with ³⁵S-Methionine labeled proteins at 4° C. for 2 hours. The beads were washed extensively and the bound proteins were resolved on a 12% SDS-PAGE and visualized by autoradiography. [0103] cDNAs corresponding to the ORFs were cloned into the pPD129.36 vector via its Nhe I and Xho I sites or the Xho I site alone. Full-length cDNAs were subcloned into the pGEX4T-2 vector for generating GST fusion proteins and for further protein purification and into the pcDNA3.1 vector for in vitro transcription/translation experiments.
(§2) ^aInteractions were evaluated relative to background binding of ³⁵S-Methionine labeled Luciferase to GST-fusion proteins and ³⁵S-Methionine labeled proteins to GST. “−” indicates no detectable binding, “+” indicates an interaction consistently observed above background levels, and “++” indicates a strong interaction. ^bBecause ³⁵S-Methionine labeled CRN-1 binds GST tightly, it was not possible to evaluate interactions between ³⁵S-CRN-1 and various GST-fusion proteins. ND, not determined.

[2] = molecular target: T2, ^35S-Methionine labeled CRN-3 (C. elegans, UniProt G5EBX6 1-876)
T2 sequence: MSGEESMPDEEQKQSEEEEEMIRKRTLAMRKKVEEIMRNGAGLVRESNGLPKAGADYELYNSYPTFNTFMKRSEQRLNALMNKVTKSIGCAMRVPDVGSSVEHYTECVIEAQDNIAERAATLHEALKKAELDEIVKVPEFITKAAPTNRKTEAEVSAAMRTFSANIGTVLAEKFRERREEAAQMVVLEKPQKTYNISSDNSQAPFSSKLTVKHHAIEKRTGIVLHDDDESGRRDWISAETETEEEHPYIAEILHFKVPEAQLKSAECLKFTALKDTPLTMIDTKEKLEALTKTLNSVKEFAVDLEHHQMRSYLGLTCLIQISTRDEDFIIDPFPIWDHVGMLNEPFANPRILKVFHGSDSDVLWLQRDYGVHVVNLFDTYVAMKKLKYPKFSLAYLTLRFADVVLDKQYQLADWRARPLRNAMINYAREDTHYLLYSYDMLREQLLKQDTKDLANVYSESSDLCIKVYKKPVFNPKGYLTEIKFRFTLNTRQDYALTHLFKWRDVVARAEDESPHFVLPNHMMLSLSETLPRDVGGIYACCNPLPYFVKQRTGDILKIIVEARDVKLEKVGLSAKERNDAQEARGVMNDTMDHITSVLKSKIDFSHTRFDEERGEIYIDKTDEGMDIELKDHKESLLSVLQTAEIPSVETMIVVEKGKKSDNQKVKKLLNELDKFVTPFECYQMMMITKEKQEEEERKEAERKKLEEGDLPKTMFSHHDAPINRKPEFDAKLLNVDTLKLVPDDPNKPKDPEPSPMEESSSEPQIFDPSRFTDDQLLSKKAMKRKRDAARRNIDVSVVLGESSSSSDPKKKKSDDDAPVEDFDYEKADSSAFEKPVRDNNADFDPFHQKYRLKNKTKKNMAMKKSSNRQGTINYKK
Procedure: as §1, §2

[3] = molecular target: T3, full-length ^35S-methionine labeled CPS-6 (C. elegans, UniProt Q95NM6 1-308, 35S-methionine labelled)
T3 construct: also called ^35S-CPS-6
T3 sequence (looked up): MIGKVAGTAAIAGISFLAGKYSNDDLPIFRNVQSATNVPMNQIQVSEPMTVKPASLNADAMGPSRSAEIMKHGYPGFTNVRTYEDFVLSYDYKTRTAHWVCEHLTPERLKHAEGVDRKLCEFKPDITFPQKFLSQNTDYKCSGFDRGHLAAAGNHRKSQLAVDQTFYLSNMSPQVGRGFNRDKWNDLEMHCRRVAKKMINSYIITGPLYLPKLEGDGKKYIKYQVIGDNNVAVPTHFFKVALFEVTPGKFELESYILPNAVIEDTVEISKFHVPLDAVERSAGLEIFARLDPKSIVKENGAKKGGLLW
Procedure: as §1, §2

[4] = molecular target: T4, ^35S-Methionine labeled NUC-1 (C. elegans, UniProt Q17778 22-375, 35S-methionine labelled)
T4 sequence (looked up): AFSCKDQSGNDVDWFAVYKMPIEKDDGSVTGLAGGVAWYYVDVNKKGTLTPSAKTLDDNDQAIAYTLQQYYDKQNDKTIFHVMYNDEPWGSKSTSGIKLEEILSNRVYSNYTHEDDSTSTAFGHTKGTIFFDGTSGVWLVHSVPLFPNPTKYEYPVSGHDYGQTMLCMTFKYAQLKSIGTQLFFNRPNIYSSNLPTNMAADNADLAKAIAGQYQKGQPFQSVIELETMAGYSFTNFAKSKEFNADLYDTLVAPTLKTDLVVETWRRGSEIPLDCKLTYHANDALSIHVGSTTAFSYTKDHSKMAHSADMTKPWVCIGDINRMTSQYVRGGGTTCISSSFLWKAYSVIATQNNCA
Procedure: as §1, §2

[5] = molecular target: T5, ^35S-Methionine labeled CRN-6 (C. elegans, UniProt P34508-2 18-373, limits assumed, 35S-methionine labelled)
T5 sequence (looked up): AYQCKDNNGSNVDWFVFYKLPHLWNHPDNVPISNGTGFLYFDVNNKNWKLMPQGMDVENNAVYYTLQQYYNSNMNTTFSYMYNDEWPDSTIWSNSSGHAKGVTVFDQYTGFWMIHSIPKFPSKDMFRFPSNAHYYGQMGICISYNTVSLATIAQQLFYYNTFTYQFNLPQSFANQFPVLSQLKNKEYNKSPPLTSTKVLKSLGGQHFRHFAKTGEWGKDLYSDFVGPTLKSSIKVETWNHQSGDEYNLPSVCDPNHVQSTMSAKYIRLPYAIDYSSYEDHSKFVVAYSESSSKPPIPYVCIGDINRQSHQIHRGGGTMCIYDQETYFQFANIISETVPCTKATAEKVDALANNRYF
Procedure: as §1, §2

Measured: binding result

B1: GST (glutathione-S transferase alone) (enzyme)
chain: not shown
notes: Purified GST used as negative control bait on glutathione sepharose beads; also called OST
no binding: all assays above

B2: GST-CRN-6 (other)
chain: [about 200 residues omitted here]MIRQIILIVSLIGISNAAYQCKDNNGSNVDWFVFYKLPHLWNHPDNVPISNGTGFLYFDVNNKNWKLMPQGMDVENNAVYYTLQQYYNSNMNTTFSYMYNDEWPDSTIWSNSSGHAKGVTVFDQYTGFWMIHSIPKFPSKDMFRFPSNAHYYGQMGICISYNTVSLATIAQQLFYYNTFTYQFNLPQSFANQFPVLSQLKNKEYNKSPPLTSTKVLKSLGGQHFRHFAKTGEWGKDLYSDFVGPTLKSSIKVETWNHQSGDEYNLPSVCDPNHVQSTMSAKYIRLPYAIDYSSYEDHSKFVVAYSESSSKPPIPYVCIGDINRQSHQIHRGGGTMCIYDQETYFQFANIISETVPCTKATAEKVDALANNRYF
notes: Two crn-6 cDNAs (700 bp and 1.1 kb) were isolated; the longer one made the GST fusion; also called CRN-6 GST-fusion protein
no binding: [2]
